# Test results: PubChem BioAssay AID686970 (National Center for Advancing Translational Sciences (NCATS), 2013)
# The whole screen tested about 360,000 compounds, of which about 6,000 (1.7%) were called active. Inconclusive results, whose numbers are uncertain, are shown with a selection of clear calls. The call rests on the fitted dose curve; in most records, active means well fitted cell-killing curve with a large enough effect; inconclusive means small, poorly fitted or top-dose-only effect, or effect the other way; inactive means flat fitted curve, though single readings scatter. No potency is given beside an inconclusive call; the fits are too rough.
# Experiment: qHTS for induction of synthetic lethality in tumor cells producing 2HG: qHTS for the HT-1080-NT fibrosarcoma cell line;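 further: NT is the 2HG producing partner of a matched IDH1 knockdown line; nearly all actives have a fitted effect of over 55% in size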;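 on activity, negative = less viability: 0% = DMSO-treated cells and -100% = media-only wells without cells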
# Conditions: HT-1080-NT fibrosarcoma viability, CellTiter-Glo ATP luminescence, 48 h; activity, negative = less viability: at 46.1 µM (top of the series) unless noted
# Summary of the method: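 Luminescent CellTiter-Glo readout after 48 hours of compound exposure at 37 degrees C defined viability of HT-1080-NT cells. Activity was normalized to DMSO wells and cell-free media wells; concentration-response curves were fitted and assigned curve classes.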
# Potency means the concentration at half of the fitted maximal effect; tags describe the fitted curve by direction and shape.
Structure (SMILES),Potency,"activity, negative = less viability"
O=C(C=Cc1ccccc1O)c1ccccc1O,active: 23.1 µM,
O=[N+]([O-])C1=CC=C2C(=NC3(CCCCC3)N2O)C1=NCCc1ccccc1,inactive,
O=C(N/N=C/c1ccc(O)cc1O)c1ccc(CN2C(=O)c3cccc4cccc2c34)cc1,,inconclusive: -27.8% [cytotoxic]
O=C(COc1ccc(S(=O)(=O)NC2CCCCC2)cc1Cl)Nc1ccc2c(c1)OCO2,"inconclusive [cytotoxic, single point]",
O=S(=O)(Cc1cc(Cl)nc(-c2cccnc2)n1)c1ccccc1,"inconclusive [cytotoxic, single point]",
O=Nc1[nH]c(=O)c(/C=C(\O)c2ccccc2)nc1NO,"inconclusive [cytotoxic, partial curve]",
O=C(Nc1ccccc1)Nc1cc(OCC(F)(F)F)cc(OCC(F)(F)F)c1,active: 6.51 µM,
COc1ccccc1-c1nnc(-c2ccc(C)cc2)o1,inactive,
CC(=O)Nc1cccc(-c2ccnc3c2CC(C(=O)NCc2ccc(F)c(F)c2)O3)c1 (stereo unspecified),"inconclusive [cytotoxic, partial curve]",
CC(CCc1ccccc1)NC(=O)c1ccc(NC(=O)c2ccc(Cl)cc2Cl)cc1 (stereo unspecified),"inconclusive [cytotoxic, full curve]",
CN1CCN(S(=O)(=O)c2cccc(C(=O)Nc3nc(-c4ccccc4)cs3)c2)CC1,inactive,
Cc1cccc(C2c3[nH]c4ccccc4c3CCN2C(=O)c2cc(-c3cccn3C)n[nH]2)n1 (stereo unspecified),"inconclusive [cytotoxic, partial curve]",
CC1CCCN(CCC(=O)Nc2ccc(Br)cc2)C1 (stereo unspecified),"inconclusive [cytotoxic, single point]",
Oc1c(C(Nc2ccccn2)c2cccnc2)cc(Cl)c2cccnc12 (stereo unspecified),"inconclusive [cytotoxic, partial curve]",
CCN(CC)C(=O)CSc1nnc(CCCCCNC(=O)OC(C)(C)C)o1,inactive,
CC1CCCCN1S(=O)(=O)c1ccc(C(=O)N(CCCN(C)C)c2nc3ccc(Br)cc3s2)cc1 (stereo unspecified),active: 18.4 µM,
O=C(Nc1ccc(Br)cn1)C1CCN(S(=O)(=O)c2cccs2)CC1,active: 9.2 µM,
C/C(=N\NC(=O)c1ccc([N+](=O)[O-])cc1)c1cc2ccccc2oc1=O,"inconclusive [cytotoxic, single point]",
CCc1cc(=O)oc2c(CNCc3c(F)cccc3Cl)c(O)ccc12,inactive,
COc1cccc(/C=N/NC(=O)c2cc(-c3ccccn3)nc3ccccc23)c1O,"inconclusive [cytotoxic, partial curve, poor fit]",
CSc1nnc(-c2sccc2OCc2ccc(C)cc2)n1C,inactive,
Cc1ccc(-n2cccc2C(=O)NS(=O)(=O)c2ccc(C)cc2)cc1,inactive,
Fc1ccc(NC(=S)Nc2ccccc2OC(F)F)cc1Cl,"inconclusive [cytotoxic, single point]",

Structure (SMILES),Potency,"activity, negative = less viability"
Cc1ccc(Cl)cc1NC(=O)C(=O)N/N=C/c1ccc2c(c1)OCO2,"inconclusive [rising, single point]",
COc1cc(C(=O)NNC(=O)c2ccc3ccccc3n2)cc(OC)c1OC,"inconclusive [cytotoxic, partial curve]",
COc1ccc(C(=O)NNC(=S)NC(=O)c2cc(-c3ccccc3)nc3ccccc23)cc1,"inconclusive [cytotoxic, single point]",
O=C(NC(=S)Nc1ccc(S(=O)(=O)N2CCCCCC2)cc1)c1cccs1,"inconclusive [cytotoxic, partial curve]",
O=C(COC(=O)c1ccc([N+](=O)[O-])s1)Nc1ccccc1,inactive,
COCOc1cccc(CN2CCC2(C)C(=O)Nc2ccc(C)cc2)c1 (stereo unspecified),"inconclusive [cytotoxic, single point]",
CC(C)C(c1nnnn1C1CCCCC1)N1CCc2ccccc21 (stereo unspecified),inactive,
CC(=O)O/N=C1\C(=O)N(Cc2ccc(C)cc2)c2ccccc21,"inconclusive [cytotoxic, full curve, poor fit]",
COc1cccc(CNc2ccc3[nH]c(=O)[nH]c3c2)c1OCc1ccc(F)cc1,inactive,
Cc1cc(C)c(C#N)c(SCc2nnc(-c3ccccc3[N+](=O)[O-])o2)n1,"inconclusive [cytotoxic, full curve, poor fit]",
CCCc1c(-c2ccc(F)cc2F)ncn1Cc1cccc(-c2ccccc2)c1,"inconclusive [cytotoxic, single point]",
C=CCC[C@H](Cc1ccc(F)cc1)C(=O)OC[C@@H](NC(=O)[C@H](CC=C)CC(=O)NCCO)c1ccccc1,inactive,
CCOc1ccc(-n2cc(-c3ccccc3)c3c(=S)nc[nH]c32)cc1,"inconclusive [cytotoxic, single point]",
Cc1cccc(NC(=S)NNC(=O)c2ccccc2OC(F)F)c1,inactive,
COc1ccc2nc(NNC(=O)COc3ccccc3)sc2c1,"inconclusive [cytotoxic, partial curve]",
CC(C)(C)c1ccc(Cn2nnc3c(=O)[nH]c(C4CCCN(C(=O)Cc5cccs5)C4)nc32)cc1 (stereo unspecified),"inconclusive [cytotoxic, single point]",
CC(=O)C1=C(C)OC2(O)c3ccccc3C(=O)C12O (stereo unspecified),inactive,
Cc1cc(C)c2nc(NC(=O)C3CC(=O)N(Cc4ccco4)C3)sc2c1 (stereo unspecified),"inconclusive [cytotoxic, partial curve]",
Cc1cc(C)cc(OCC(=O)NNC(=O)CCN2C(=O)c3ccccc3C2=O)c1,,inconclusive: 30.9%
Cc1cc(NC2=CC(=O)C(=O)c3ccccc32)no1,"inconclusive [cytotoxic, single point]",
O=C1CC(NS(=O)(=O)c2ccc([N+](=O)[O-])cc2)CN1c1cccc(F)c1 (stereo unspecified),inactive,
Cn1c(=O)c2cc(NC(=O)Nc3cccnc3)ccc2n1-c1ccc(C(C)(C)C)cc1,active: 20.6 µM,
Nc1c(N(Cc2ccccc2)C(=O)COc2ccc([N+](=O)[O-])cc2)c(=O)[nH]c(=O)n1Cc1ccccc1,"inconclusive [cytotoxic, partial curve]",
